According to the supplement of paper PMC10037445:
In all, about 2,900 compounds were measured (“NF-kB SEAP reporter activity, fold change vs agonist alone”: median about 0.99, highest 2% from about 2.6 on). The list shows a part of the results.

Assays:
[1] = tested on: RAW-Dual; experiment: NF-kB SEAP reporter activity, fold change vs agonist alone; cytotoxicity flag (confluency mask): not cytotoxic; higher = enhanced NF-kB activity
Outline: (§1)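 After 50 nL of library stock was delivered by pin tool to RAW-Dual macrophages (50,000 cells/well, DMEM, 384-well plates), a PRR agonist was added 1 h later and the plates were kept at 37 °C, 5% CO2. Twenty hours later, IRF was read from supernatant by QuantiLuc luminescence and NF-κB by QuantiBlue absorbance at 620 nm. Reporter activity is stated as fold change over agonist-alone wells. Wells with IncuCyte confluency under 70% of agonist controls in both mask sets were counted as cytotoxic.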

[2] = tested on: RAW-Dual; experiment: NF-kB SEAP reporter activity, fold change vs agonist alone; higher = enhanced NF-kB activity; details: library stock concentration (final ~1000-fold dilution): 10 mM
Outline: as §1

[3] = tested on: RAW-Dual; experiment: NF-kB SEAP reporter activity, fold change vs agonist alone; cytotoxicity flag (confluency mask): cytotoxic (confluency <70% of control); higher = enhanced NF-kB activity
Outline: as §1

[4] = agonist: ODN 1826 (TLR9) 0.5 ug/mL
[5] = agonist: Pam2CSK4 (TLR2/6) 0.1 ug/mL
[6] = agonist: Pam3CSK4 (TLR2/1) 0.1 ug/mL
[7] = cytotoxicity flag (confluency mask): not cytotoxic, agonist: Imiquimod (TLR7) […]
[8] = cytotoxicity flag (confluency mask): not cytotoxic, agonist: MPLA (TLR4) […]

Cn1c(=O)c2[nH]cnc2n(C)c1=O.Cn1c(=O)c2[nH]cnc2n(C)c1=O.NCCN (library stock concentration (final ~1000-fold dilution): 10 mM)
NF-kB SEAP reporter activity ([1]; agonist: LPS (TLR4) 0.1 ug/mL): 1.11 | NF-kB SEAP reporter activity [1, 4]: 0.958 | NF-kB SEAP reporter activity [1, 5]: 1.14 | NF-kB SEAP reporter activity [1, 6]: 1.13

Cn1c(=O)c2[nH]cnc2n(C)c1=O.Cn1c(=O)c2[nH]cnc2n(C)c1=O.NCCN
NF-kB SEAP reporter activity [2, 7]: 0.765 | NF-kB SEAP reporter activity [2, 8]: 1.06

CC(=O)Oc1ccccc1C(=O)O.CC(=O)Oc1ccccc1C(=O)O.NC(N)=O (library stock concentration (final ~1000-fold dilution): 10 mM)
NF-kB SEAP reporter activity ([1]; agonist: LPS (TLR4) 0.1 ug/mL): 0.797 | NF-kB SEAP reporter activity [1, 4]: 0.977 | NF-kB SEAP reporter activity [1, 5]: 1.14 | NF-kB SEAP reporter activity [1, 6]: 0.999

CC(=O)Oc1ccccc1C(=O)O.CC(=O)Oc1ccccc1C(=O)O.NC(N)=O
NF-kB SEAP reporter activity [2, 7]: 0.905 | NF-kB SEAP reporter activity [2, 8]: 1.07

Cl.Cl.O=S(=O)(NCCNC/C=C/c1ccc(Br)cc1)c1cccc2cnccc12
NF-kB SEAP reporter activity [2, 7]: 1.61 | NF-kB SEAP reporter activity [2, 8]: 1.3

Cl.Cl.O=S(=O)(NCCNC/C=C/c1ccc(Br)cc1)c1cccc2cnccc12 (library stock concentration (final ~1000-fold dilution): 10 mM)
NF-kB SEAP reporter activity ([1]; agonist: LPS (TLR4) 0.1 ug/mL): 1.26 | NF-kB SEAP reporter activity [1, 4]: 0.195 | NF-kB SEAP reporter activity [1, 5]: 0.923 | NF-kB SEAP reporter activity [1, 6]: 1.13

c1cn2cc(-c3ccc4cn[nH]c4c3)nc(Nc3ccc(N4CCOCC4)cc3)c2n1
NF-kB SEAP reporter activity [2, 7]: 1.03 | NF-kB SEAP reporter activity [2, 8]: 1.06

c1cn2cc(-c3ccc4cn[nH]c4c3)nc(Nc3ccc(N4CCOCC4)cc3)c2n1 (library stock concentration (final ~1000-fold dilution): 10 mM)
NF-kB SEAP reporter activity ([1]; agonist: LPS (TLR4) 0.1 ug/mL): 1.06 | NF-kB SEAP reporter activity [1, 4]: 1.06 | NF-kB SEAP reporter activity [1, 5]: 0.882 | NF-kB SEAP reporter activity [1, 6]: 1.06

CCC(NC(=O)C(C)NC)C(=O)N1CC(O)CC1Cc1c(-c2[nH]c3cc(F)ccc3c2CC2CC(O)CN2C(=O)C(CC)NC(=O)C(C)NC)[nH]c2cc(F)ccc12 (stereo unspecified)
NF-kB SEAP reporter activity [2, 7]: 0.863 | NF-kB SEAP reporter activity [2, 8]: 0.688

CCC(NC(=O)C(C)NC)C(=O)N1CC(O)CC1Cc1c(-c2[nH]c3cc(F)ccc3c2CC2CC(O)CN2C(=O)C(CC)NC(=O)C(C)NC)[nH]c2cc(F)ccc12 (stereo unspecified) (library stock concentration (final ~1000-fold dilution): 10 mM)
NF-kB SEAP reporter activity ([1]; agonist: LPS (TLR4) 0.1 ug/mL): 0.863 | NF-kB SEAP reporter activity [1, 4]: 0.906 | NF-kB SEAP reporter activity [1, 5]: 0.956 | NF-kB SEAP reporter activity [1, 6]: 0.975

NC1CCCN(c2c(Br)cnc3[nH]cc(NC(=O)C4CC4)c23)C1 (stereo unspecified)
NF-kB SEAP reporter activity ([2]; cytotoxicity flag (confluency mask): cytotoxic (confluency <70% of control), agonist: Imiquimod (TLR7) […]): 0.557 | NF-kB SEAP reporter activity ([2]; cytotoxicity flag (confluency mask): cytotoxic (confluency <70% of control), agonist: MPLA (TLR4) […]): 0.792

NC1CCCN(c2c(Br)cnc3[nH]cc(NC(=O)C4CC4)c23)C1 (stereo unspecified) (library stock concentration (final ~1000-fold dilution): 10 mM)
NF-kB SEAP reporter activity ([3]; agonist: LPS (TLR4) 0.1 ug/mL): 1.1 | NF-kB SEAP reporter activity [3, 4]: 0.621 | NF-kB SEAP reporter activity [3, 5]: 0.375 | NF-kB SEAP reporter activity [3, 6]: 0.487

CC(C)OC(=O)CCC/C=C\CC1C(O)CC(O)C1CCC(O)CCc1ccccc1 (stereo unspecified)
NF-kB SEAP reporter activity [2, 8]: 1.43

CC(C)OC(=O)CCC/C=C\CC1C(O)CC(O)C1CCC(O)CCc1ccccc1 (stereo unspecified) (library stock concentration (final ~1000-fold dilution): 10 mM)
NF-kB SEAP reporter activity ([1]; agonist: LPS (TLR4) 0.1 ug/mL): 1.4 | NF-kB SEAP reporter activity [1, 4]: 0.911 | NF-kB SEAP reporter activity [1, 5]: 1.1 | NF-kB SEAP reporter activity [1, 6]: 0.929

O=C1CCC(N2C(=O)c3ccccc3C2=O)C(=O)N1 (stereo unspecified) (library stock concentration (final ~1000-fold dilution): 10 mM)
NF-kB SEAP reporter activity ([1]; agonist: LPS (TLR4) 0.1 ug/mL): 1.22 | NF-kB SEAP reporter activity [1, 4]: 1.01 | NF-kB SEAP reporter activity [1, 5]: 0.95 | NF-kB SEAP reporter activity [1, 6]: 1.17

O=C1CCC(N2C(=O)c3ccccc3C2=O)C(=O)N1 (stereo unspecified)
NF-kB SEAP reporter activity [2, 7]: 0.926 | NF-kB SEAP reporter activity [2, 8]: 0.792

COc1c(O)cc2oc3cc(O)c(CC=C(C)C)c(O)c3c(=O)c2c1CC=C(C)C (library stock concentration (final ~1000-fold dilution): 10 mM)
NF-kB SEAP reporter activity ([1]; agonist: LPS (TLR4) 0.1 ug/mL): 0.946 | NF-kB SEAP reporter activity [1, 4]: 0.766 | NF-kB SEAP reporter activity [1, 5]: 0.793 | NF-kB SEAP reporter activity [1, 6]: 0.683
